Assay results as given in PubChem BioAssay AID686978 (National Center for Advancing Translational Sciences (NCATS), 2013).
In all, about 420,000 compounds went through this assay and about 64,000 (15%) were called active. The inconclusive results got no clear call from the source; some entries with a clear call stand among them for comparison. The call rests on the fitted dose curve; in most records, active means well fitted inhibition curve with a large enough effect; inconclusive means small, poorly fitted or top-dose-only effect; inactive means flat fitted curve, though single readings scatter. Potencies of inconclusive entries are left out as doubtful fits.

test: qHTS for Inhibitors of human tyrosyl-DNA phosphodiesterase 1 (TDP1): qHTS in cells in absence of CPT; details: DT40 Tdp1-/- hTDP1 cells, no CPT, ATP luminescence, 48 h; activity change, negative = growth inhibition: at 46.2 µM (top of the series) unless noted; further: nearly all actives have a fitted effect of over 55% in size
In short: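 Cells were dispensed at 400 per well, compounds added by pin tool, plates incubated ≥48 hr at 37 °C, then CellTiter-Glo added for 30 min at room temperature before luminescence reading. Line: DT40 Tdp1-/- complemented with hTDP1; camptothecin omitted.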
On the % scale 0 is the no-effect control and ±100 the full control effect; potency means the concentration at half of the fitted maximal effect; tags describe the fitted curve by direction and shape.

| SMILES | activity change, negative = growth inhibition | Potency |
| --- | --- | --- |
| Cc1ccc2nc(COc3cccc(NC(=O)COc4ccc(F)cc4)c3)cc(=O)n2c1 | inactive: -22.2% |  |
| CC(=O)c1cccc(NS(=O)(=O)c2cccc(S(=O)(=O)c3ccc(Br)cc3)c2)c1 |  | inconclusive [inhibitor, single point] |
| CC(=O)Nc1ccc(S(=O)(=O)N2CCC(NC(=O)C(Cc3ccccc3F)NC(C)=O)CC2)cc1 (centres undefined) | inactive: -12.3% |  |
| COc1ccc(-c2nc(CSCC(=O)N3CCN(c4ccccc4)CC3)c(C)o2)cc1 |  | active: 10.3 µM |
| Cc1c(CN2CCC(Oc3ccc(C(=O)N4CCCCC4)cc3)CC2)cnn1C | inactive: 5.35% |  |
| COc1ccc(C2Nc3ccccc3C(=O)N2Cc2ccco2)cc1COc1c(C)cccc1C (centres undefined) |  | active: 5.01 µM |
| CC(C)c1ccc(NC(=O)Cn2c(=O)oc3ccccc32)cc1 |  | inconclusive [inhibitor, partial curve] |
| COc1ccc(C(=O)Cn2c(NCCCO)nc3ccccc32)cc1 |  | inconclusive [inhibitor, single point] |
| CCCn1c(SCC(=O)NCC(=O)Nc2ccc(F)c(F)c2F)nc2ccccc2c1=O |  | inconclusive [inhibitor, partial curve] |
| Cc1sc2ncnc(Oc3ccc(-n4ccnc4)cc3)c2c1C |  | inconclusive [inhibitor, partial curve] |
| Cc1c(NC(=O)Nc2ccccc2Cl)sc(=S)n1C | inactive: 9.06% |  |
| COc1ccccc1S(=O)(=O)N1CCN(c2nc(-c3cccs3)nc3ccccc23)CC1 |  | active: 7.94 µM |
| CCOC(=O)C1CCCN(C(=O)CSc2nccn2C)C1 (centres undefined) | inactive: 0.219% |  |
| O=C(Nc1ccc(Cn2ccnc2)cc1)c1cccc(C(F)(F)F)c1 | inactive: -17.3% |  |
| Cn1c(SCc2c(F)cccc2Cl)nnc1-c1cccs1 |  | inconclusive [inhibitor, single point] |
| CCOc1cc(C(=O)N2CCN(c3ccccc3)CC2)cc(OCC)c1OCC |  | inconclusive [inhibitor, partial curve] |
| Cc1ccc(/C=C2\SC(=S)N(CCC(=O)NNC(=O)c3ccncc3)C2=O)cc1 | inactive: -9.55% |  |
| O=C(Nc1ccc(C(F)(F)F)cc1)c1csc(-c2ccncc2)n1 |  | inconclusive [inhibitor, single point] |
| O=C(N/C(=C/c1cn(-c2ccccc2)nc1-c1ccccc1)C(=O)N1CCOCC1)c1ccc(Cl)cc1Cl |  | inconclusive [inhibitor, single point] |
| O=C(NNC(=S)NC1CCCCC1)c1ccc(Cl)s1 |  | active: 14.6 µM |
| Cc1ccc(-c2nnc(-c3ccccc3Br)o2)cc1 | inactive: -17.2% |  |
| COc1ccccc1/C=C/CN1CC(C)OC(C)C1 (centres undefined) | inactive: -19.8% |  |
| CC(C)CN1C2CCCC1CC(NC(=O)c1ccc([N+](=O)[O-])cc1)C2 (centres undefined) | inactive: -1.65% |  |
| Cc1ccccc1NP1(=O)OCCCN1Cc1ccccc1Cl (centres undefined) |  | inconclusive [inhibitor, single point] |
| CCOC(=O)c1sc2cccc(F)c2c1N |  | inconclusive [inhibitor, single point] |

| SMILES | activity change, negative = growth inhibition | Potency |
| --- | --- | --- |
| O=C(NC(=S)NNC(=O)c1ccccc1F)c1cccnc1 |  | inconclusive [inhibitor, single point] |
| COc1ccccc1CNC(=O)COC(=O)CNS(=O)(=O)c1ccc(NC(C)=O)cc1 | inactive: 11.4% |  |
| C=C(C)CSc1nc2sc3c(c2c(=O)n1-c1ccc(OC)cc1)CCN(C)C3 |  | inconclusive [inhibitor, single point] |
| Cc1c(Cl)cccc1NC(=O)c1cc2nc(-c3ccc4c(c3)OCO4)cc(C(F)(F)F)n2n1 | inactive: -19.1% |  |
| O=CN1CCN(C(=O)Cc2ccc(Cl)cc2)CC1 | inactive: -1.28% |  |
| CC(C)Cn1c(N)c(C(=O)COC(=O)c2ccccc2Cl)c(=O)n(C)c1=O |  | inconclusive [inhibitor, single point] |
| COCc1cc(N2CCOCC2)nc(-c2ccccc2)n1 | inconclusive: -32.4% [inhibitor] |  |
| Clc1ccc(/C=N/NC2=Nc3cccc4cccc2c34)cc1 |  | inconclusive [inhibitor, partial curve] |
| O=C(COc1ccccc1)OCc1cc(=O)n2nc(-c3cccs3)sc2n1 | inactive: -13.5% |  |
| COc1cc(NC(=O)C(Cc2ccccc2)n2cccc2)cc(OC)c1 (centres undefined) |  | inconclusive [inhibitor, partial curve] |
| Cc1cccc(C)c1NC(=O)CCCSc1nnc(-c2ccco2)o1 |  | inconclusive [inhibitor, single point] |
| c1ccc2c(CSCc3nc4ccccc4[nH]3)cccc2c1 |  | inconclusive [inhibitor, single point] |
| CCc1nc(N2CCCC(C)C2)c2oc3ccccc3c2n1 (centres undefined) |  | inconclusive [inhibitor, single point] |
| Cc1ccc(S(=O)(=O)CCc2nnc(NC(=O)CCl)s2)cc1C |  | active: 13 µM |
| CCc1nn(CC(=O)NC(C)CC)c(=O)c2cc3occc3n12 (centres undefined) | inactive: -13.3% |  |
| CCOC(=O)N1CCN(C(=O)c2ccc3c(c2)N(Cc2ccc(C)cc2)CCS3)CC1 |  | active: 23.1 µM |
| CCCCC(=O)NNC(=S)NC(=O)c1ccc(C)cc1 |  | inconclusive [inhibitor, single point] |
| COc1ccc(NS(=O)(=O)c2ccc(C)c(C(=O)N(C)CCc3ccc(OC)c(OC)c3)c2)cc1 |  | inconclusive [inhibitor, partial curve, poor fit] |
| CN(CC(=O)NNC(=O)CCNS(=O)(=O)c1ccccc1)S(=O)(=O)c1ccc(Cl)cc1 | inactive: -7.17% |  |
| Cc1ccccc1-c1nnn(Cc2cccc(S(=O)(=O)N3CCOCC3)c2)n1 |  | inconclusive [inhibitor, single point] |
| Clc1ccc(C=NN2CCCCCC2)cc1 |  | inconclusive [inhibitor, single point] |
| N#C/C(=C\c1ccc([N+](=O)[O-])o1)c1nc2ccccc2[nH]1 |  | active: 0.82 µM |
| COc1cccc(OCCn2c(-c3ccc(Br)cc3)nc3ccccc3c2=O)c1 | inactive: -7% |  |
| COc1cc(C2Nc3cc(C)c(C)cc3NC3=C2C(=O)CC(C)(C)C3)ccc1OC(C)=O (centres undefined) | inactive: 23.2% |  |
